According to PubChem BioAssay AID1963576 (National Center for Advancing Translational Sciences (NCATS), 2024):
In all, about 46,000 compounds went through this assay and about 60 (0.1%) were called active. Roughly 3% stayed inconclusive and do not appear here. Calls come from the whole dose curve; as a rule, active = well fitted inhibition curve with a large enough effect; inconclusive = small, poorly fitted or top-dose-only effect; inactive = no such curve, though single readings can be large or run the other way. Some of the results follow.

assay: Primary qHTS assay for Inhibitors of ovarian cancer metastasis using an organotypic tumor microenvironment (TME) model.; note: nearly all actives have a fitted effect of over 65% in size;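 for activity change, negative = inhibition: plate controls were DMSO wells for no effect and tomatine positive control wells for full effect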; conditions: SKOV3ip1-GFP adhesion/invasion on 3D omental model, fluorescence; series mostly up to 45.8 µM; activity change, negative = inhibition: at the top concentration
Outline: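 A 3D layer of primary human omental fibroblasts, mesothelial cells, fibronectin and collagen I, grown 48 hr, received SKOV3ip1-GFP cells in serum-free medium plus compounds at 0.36-46 umol/L. After 2 hr RT and 16 hr 37 C, fixed adherent GFP cells were counted; normalized to DMSO and tomatine.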

Activity change, negative = inhibition, inactive:
COCCNC(=O)Cn1ncc2c(C)n(Cc3ccc(C)cc3)c(C)c2c1=O 8.87%, CCCOc1ccccc1C1Oc2nc(SC)nnc2-c2ccccc2N1C(C)=O (configuration not stated) 3.2%, CCCNC(=O)CN1CCN(c2ncc(NC(=O)c3ccc(Cl)cc3)cc2C(=O)O)CC1 1.6%, CCOC(=O)c1ccc(-c2ccc(/C=C(\C#N)C(=O)Nc3ccc(C)cc3OC)o2)cc1 -19.7%, CC(C)(C)C(=O)OC1=CN(Cc2ccccc2)S(=O)(=O)c2ccccc21 -5.33%, Cc1ccc(CN(Cc2ccco2)C(=O)c2oc3ccc(C)cc3c2C)cc1 -11.5%, Cc1cccc(-n2ncc3c(N4CCCCCC4)ncnc32)c1 8.16%, Cc1ccc(C)c(CNC(=O)c2cnc3sc(N4CCCC4)nn3c2=O)c1 2.39%, CCOc1ccc(C(=O)c2cn(Cc3ccc(F)cc3)c3ccc(F)cc3c2=O)cc1 -19.7%, Cc1cccc(N(C)C(=S)Oc2ccc3ccccc3c2)c1 -9.47%, O=S(=O)(c1ccccc1)c1nc(-c2ccc(F)cc2)oc1N1CCCCCC1 0.268%, CCOc1ccc(/C=C/C(=O)Nc2sc3c(c2C(=O)OC)CCC3)cc1 3.76%, COc1cccc(NC(=O)c2c(C(=O)Nc3ccccc3)sc3nc(C)cc(=O)n23)c1 5.76%, Cc1ccc(-c2cc(C(=O)N3CCN(c4ccccc4)CC3)c3ccccc3n2)cc1C -20.6%, COC(=O)c1cc(NC(=O)CCc2c(C)nc3cc(-c4ccccc4)nn3c2C)cc(C(=O)OC)c1 20.6%, Cc1sc2c(c1C)c(=O)n(-c1ccc(Cl)cc1)c(=O)n2Cc1c(F)cccc1Cl 2.69%, CCOC(=O)c1c(S(=O)(=O)N2CCC(C(=O)N3CCN(c4cc(C)ccc4C)CC3)CC2)c(C)n(C)c1C -11.5%, COc1cc(C2C(C(=O)Nc3ccccc3)=C(C)Nc3nc(SCc4ccccc4F)nn32)cc(OC)c1OC (configuration not stated) 16.7%, O=C(NCCc1csc2nc(-c3ccc(F)cc3)nn12)c1ccco1 19%, CCc1ccccc1NC(=O)c1nc(-c2ccncc2)no1 -3.72%, COc1ccc(C)cc1NC(=O)Cn1cc(S(=O)(=O)Cc2ccccc2Cl)c2ccccc21 0.397%

outcome, inactive:
CSc1ccc(C2c3c(oc4ccccc4c3=O)C(=O)N2CCCN2CCOCC2)cc1 (configuration not stated), CCc1ccc(NC(=O)CSc2nc3ncccc3[nH]2)cc1, CC1CCN(S(=O)(=O)c2cc(C(=O)Nc3ccc(Br)cc3F)n(C)c2)CC1, CCOc1ccccc1CNS(=O)(=O)c1csc(C(N)=O)c1, Cc1cccc(NC(=O)Cn2c(C(F)(F)F)nc3ccccc32)c1C, CCOc1cc2c(cc1OCC)C(c1c(F)cccc1Cl)CC(=O)N2 (configuration not stated)
